Measurements: patent US20230287084A1 (35PHARMA, published 2023)

T1: activin A (UniProt P08476 311-426)
T1 sequence (looked up): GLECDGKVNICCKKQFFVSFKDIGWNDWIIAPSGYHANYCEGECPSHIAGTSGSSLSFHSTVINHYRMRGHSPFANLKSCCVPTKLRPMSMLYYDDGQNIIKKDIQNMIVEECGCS

T2: GDF-8 (UniProt O14793 267-375)
T2 sequence (looked up): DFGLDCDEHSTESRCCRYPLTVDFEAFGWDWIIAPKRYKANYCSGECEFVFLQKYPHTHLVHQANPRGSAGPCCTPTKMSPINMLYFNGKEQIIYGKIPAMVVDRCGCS

T3: BMP-9 (UniProt Q9UK05 320-429)
T3 sequence (looked up): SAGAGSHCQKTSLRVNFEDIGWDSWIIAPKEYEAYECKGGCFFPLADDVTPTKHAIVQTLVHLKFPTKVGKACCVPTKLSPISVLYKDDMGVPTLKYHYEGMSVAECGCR

T4: activin B (UniProt P09529 293-407)
T4 sequence (looked up): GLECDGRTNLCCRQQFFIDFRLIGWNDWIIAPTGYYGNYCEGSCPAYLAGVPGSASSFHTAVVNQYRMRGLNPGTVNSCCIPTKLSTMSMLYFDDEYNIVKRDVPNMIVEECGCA

T5: GDF-11 (UniProt O95390 299-407)
T5 sequence (looked up): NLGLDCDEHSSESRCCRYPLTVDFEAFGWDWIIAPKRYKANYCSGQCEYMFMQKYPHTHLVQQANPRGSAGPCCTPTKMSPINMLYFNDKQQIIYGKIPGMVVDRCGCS

T6: BMP-10 (UniProt O95393 317-424)
T6 sequence (looked up): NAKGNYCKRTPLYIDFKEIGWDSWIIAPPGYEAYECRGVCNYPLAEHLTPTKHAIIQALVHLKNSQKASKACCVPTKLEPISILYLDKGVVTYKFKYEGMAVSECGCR


Columns and labels:
Test in all cases: cell-based or functional assay
activin A = molecular target: T1, activin A
GDF-8 = molecular target: T2, GDF-8
BMP-9 = molecular target: T3, BMP-9
activin B = molecular target: T4, activin B
GDF-11 = molecular target: T5, GDF-11
BMP-10 = molecular target: T6, BMP-10

Row | Binder | Avg IC50, activin A neutralization (HEK293 TGFβ-reporter) (activin A) [nM] | Avg IC50, GDF-8 neutralization (HEK293 TGFβ-reporter) (GDF-8) [nM] | Average IC50, BMP-9 neutralization (HepG2 BMP-reporter) (BMP-9) [nM] | Avg IC50, activin B neutralization (HEK293 TGFβ-reporter) (activin B) [nM] | Avg IC50, GDF-11 neutralization (HEK293 TGFβ-reporter) (GDF-11) [nM] | Average IC50, BMP-10 neutralization (HepG2 BMP-reporter) (BMP-10) [nM]
1 | P1153 (hActRIIB - F58K, 6aa linker, IgG1 FcDL) (Fc fusion) ETRECIYYNANWELERTNQSGLERCEGEQDKRLHCYASWRNSSGTIELVKKGCWLDDKNCYDRQECVATEENPQVYFCCCEGNFCNERFTHLPEAGGPEVTYEPPPTGGGG[omitted - human IgG1 Fc and a few adjoining residues] | 0.86 | 1.5 | 170 | – | – | –
2 | P1218 (hActRIIB - F58Q, 6aa linker, IgG1 FcDL) (Fc fusion) ETRECIYYNANWELERTNQSGLERCEGEQDKRLHCYASWRNSSGTIELVKKGCWLDDQNCYDRQECVATEENPQVYFCCCEGNFCNERFTHLPEAGGPEVTYEPPPTGGGG[omitted - human IgG1 Fc and a few adjoining residues] | 1.1 | 0.8 | 101 | – | – | –
3 | P1154 (hActRIIB - F58K, 10aa linker, IgG1 FcDL) (Fc fusion) ETRECIYYNANWELERTNQSGLERCEGEQDKRLHCYASWRNSSGTIELVKKGCWLDDKNCYDRQECVATEENPQVYFCCCEGNFCNERFTHLPEAGGPEVTYEPPPTGGGGSGGG[omitted - human IgG1 Fc and a few adjoining residues] | 0.53 | 1 | 210 | – | – | –
4 | P1219 (hActRIIB - F58Q, 10aa linker, IgG1 FcDL) (Fc fusion) ETRECIYYNANWELERTNQSGLERCEGEQDKRLHCYASWRNSSGTIELVKKGCWLDDQNCYDRQECVATEENPQVYFCCCEGNFCNERFTHLPEAGGPEVTYEPPPTGGGGSGGG[omitted - human IgG1 Fc and a few adjoining residues] | 0.78 | 0.72 | 59 | – | – | –
5 | P1213 (hActRIIB - F58N, 14aa linker, IgG1 FcDL) (Fc fusion) ETRECIYYNANWELERTNQSGLERCEGEQDKRLHCYASWRNSSGTIELVKKGCWLDDNNCYDRQECVATEENPQVYFCCCEGNFCNERFTHLPEAGGPEVTYEPPPTGGGGSGGGGSGG[omitted - human IgG1 Fc and a few adjoining residues] | 1.5 | 1.1 | 192 | – | – | –
6 | P1217 (hActRIIB - F58H, 14aa linker, IgG1 FcDL) (Fc fusion) ETRECIYYNANWELERTNQSGLERCEGEQDKRLHCYASWRNSSGTIELVKKGCWLDDHNCYDRQECVATEENPQVYFCCCEGNFCNERFTHLPEAGGPEVTYEPPPTGGGGSGGGGSGG[omitted - human IgG1 Fc and a few adjoining residues] | 0.59 | 0.56 | 23 | – | – | –
7 | P1215 (hActRIIB - F58R, 14aa linker, IgG1 FcDL) (Fc fusion) ETRECIYYNANWELERTNQSGLERCEGEQDKRLHCYASWRNSSGTIELVKKGCWLDDRNCYDRQECVATEENPQVYFCCCEGNFCNERFTHLPEAGGPEVTYEPPPTGGGGSGGGGSGG[omitted - human IgG1 Fc and a few adjoining residues] | 0.58 | 0.99 | 91 | – | – | –
8 | P119 (hActRIIB - G27D, 3aa linker, IgG1 FcEM) (Fc fusion) ETRECIYYNANWELERTNQSGLERCEDEQDKRLHCYASWRNSSGTIELVKKGCWLDDFNCYDRQECVATEENPQVYFCCCEGNFCNERFTHLPEAGGPEVTYEPPPTG[omitted - human IgG1 Fc and a few adjoining residues] | 0.98 | 0.64 | 1.3 | 1.8 | 0.97 | 2.1
9 | P121 (hActRIIB - F58E, 3aa linker, IgG1 FcEM) (Fc fusion) ETRECIYYNANWELERTNQSGLERCEGEQDKRLHCYASWRNSSGTIELVKKGCWLDDENCYDRQECVATEENPQVYFCCCEGNFCNERFTHLPEAGGPEVTYEPPPTG[omitted - human IgG1 Fc and a few adjoining residues] | 1.3 | 0.29 | 868 | 2.5 | 0.4 | 1
10 | P120 (hActRIIB - D57E, 3aa linker, IgG1 FcEM) (Fc fusion) ETRECIYYNANWELERTNQSGLERCEGEQDKRLHCYASWRNSSGTIELVKKGCWLDEFNCYDRQECVATEENPQVYFCCCEGNFCNERFTHLPEAGGPEVTYEPPPTG[omitted - human IgG1 Fc and a few adjoining residues] | > 1000 | > 1000 | > 1000 | > 1000 | > 1000 | > 1000
11 | P124 (hActRIIB - K31Y, 3aa linker, IgG1 FcEM) (Fc fusion) ETRECIYYNANWELERTNQSGLERCEGEQDYRLHCYASWRNSSGTIELVKKGCWLDDFNCYDRQECVATEENPQVYFCCCEGNFCNERFTHLPEAGGPEVTYEPPPTG[omitted - human IgG1 Fc and a few adjoining residues] | 5.3 | 7.1 | 15.9 | 22 | 5.3 | 21
12 | P1156 (hActRIIB - F58K, 39aa linker, IgG1 FcDL) (Fc fusion) ETRECIYYNANWELERTNQSGLERCEGEQDKRLHCYASWRNSSGTIELVKKGCWLDDKNCYDRQECVATEENPQVYFCCCEGNFCNERFTHLPEAGGPEVTYEPPPTGGGGSGGGGSGGGGSGGGGSGGGGSGGGGSGGGGSGG[omitted - human IgG1 Fc and a few adjoining residues] | 0.32 | – | 127 | – | – | –
13 | P1168 (hActRIIB - F58E + C-term APT, 14aa linker, IgG1 FcDL) (Fc fusion) ETRECIYYNANWELERTNQSGLERCEGEQDKRLHCYASWRNSSGTIELVKKGCWLDDENCYDRQECVATEENPQVYFCCCEGNFCNERFTHLPEAGGPEVTYEPPPTAPTGGGGSGGGGSGG[omitted - human IgG1 Fc and a few adjoining residues] | 0.35 | 0.39 | > 100 | – | – | –
14 | P1155 (hActRIIB - F58K, 19aa linker, IgG1 FcDL) (Fc fusion) ETRECIYYNANWELERTNQSGLERCEGEQDKRLHCYASWRNSSGTIELVKKGCWLDDKNCYDRQECVATEENPQVYFCCCEGNFCNERFTHLPEAGGPEVTYEPPPTGGGGSGGGGSGGGGSGG[omitted - human IgG1 Fc and a few adjoining residues] | 0.36 | 1.1 | 134 | – | – | –
15 | P1220 (hActRIIB - F58Q, 19aa linker, IgG1 FcDL) (Fc fusion) ETRECIYYNANWELERTNQSGLERCEGEQDKRLHCYASWRNSSGTIELVKKGCWLDDQNCYDRQECVATEENPQVYFCCCEGNFCNERFTHLPEAGGPEVTYEPPPTGGGGSGGGGSGGGGSGG[omitted - human IgG1 Fc and a few adjoining residues] | 0.54 | 0.55 | – | – | – | –
